Measurements as given in PubChem BioAssay AID504332 (National Center for Advancing Translational Sciences (NCATS), 2011).
Values joined by “and” are separate entries in the source; they are usually repeats but may differ in a detail not shown here. Identical values can stand only once. Out of some 350,000 compounds screened, about 31,000 (8.9%) were called active. This list was built around the results that the source calls inconclusive (neither active nor inactive); the mix of calls is not that of the screen. Calls follow the shape of the dose curve; as a rule, active = well fitted inhibition curve with a large enough effect; inconclusive = small, poorly fitted or top-dose-only effect; inactive = no such curve, though single readings can be large or run the other way. A potency beside an inconclusive call is a rough fit, not a confirmed value. A structure can be active in one record and inactive in another.

Target: Histone-lysine N-methyltransferase EHMT2 (Homo sapiens) (UniProt Q96KQ7)
Assay: qHTS Assay for Inhibitors of Histone Lysine Methyltransferase G9a; also: nearly all actives have a fitted effect of over 75% in size
Conditions: G9a H3K9 monomethylation, AlphaScreen, 2 h; activity, negative = inhibition: at 59 µM (top of the series) unless noted
Outline: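 Quantitative HTS format: methyltransferase activity on a biotin-tagged H3K9 peptide is measured by AlphaScreen, using a rabbit anti-monomethyl-H3K9 antibody with streptavidin donor and anti-IgG acceptor beads. Final levels are 20 nM enzyme, 500 nM peptide, 20 uM SAM; 2 h RT.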
% is scaled to controls: 0 for no effect and ±100 for the full control effect; potency is read from the fitted curve at half-maximal effect; tags tell the direction and shape of the fitted curve.

Sequence of UniProt Q96KQ7 (Q96KQ7 whole entry, looked up): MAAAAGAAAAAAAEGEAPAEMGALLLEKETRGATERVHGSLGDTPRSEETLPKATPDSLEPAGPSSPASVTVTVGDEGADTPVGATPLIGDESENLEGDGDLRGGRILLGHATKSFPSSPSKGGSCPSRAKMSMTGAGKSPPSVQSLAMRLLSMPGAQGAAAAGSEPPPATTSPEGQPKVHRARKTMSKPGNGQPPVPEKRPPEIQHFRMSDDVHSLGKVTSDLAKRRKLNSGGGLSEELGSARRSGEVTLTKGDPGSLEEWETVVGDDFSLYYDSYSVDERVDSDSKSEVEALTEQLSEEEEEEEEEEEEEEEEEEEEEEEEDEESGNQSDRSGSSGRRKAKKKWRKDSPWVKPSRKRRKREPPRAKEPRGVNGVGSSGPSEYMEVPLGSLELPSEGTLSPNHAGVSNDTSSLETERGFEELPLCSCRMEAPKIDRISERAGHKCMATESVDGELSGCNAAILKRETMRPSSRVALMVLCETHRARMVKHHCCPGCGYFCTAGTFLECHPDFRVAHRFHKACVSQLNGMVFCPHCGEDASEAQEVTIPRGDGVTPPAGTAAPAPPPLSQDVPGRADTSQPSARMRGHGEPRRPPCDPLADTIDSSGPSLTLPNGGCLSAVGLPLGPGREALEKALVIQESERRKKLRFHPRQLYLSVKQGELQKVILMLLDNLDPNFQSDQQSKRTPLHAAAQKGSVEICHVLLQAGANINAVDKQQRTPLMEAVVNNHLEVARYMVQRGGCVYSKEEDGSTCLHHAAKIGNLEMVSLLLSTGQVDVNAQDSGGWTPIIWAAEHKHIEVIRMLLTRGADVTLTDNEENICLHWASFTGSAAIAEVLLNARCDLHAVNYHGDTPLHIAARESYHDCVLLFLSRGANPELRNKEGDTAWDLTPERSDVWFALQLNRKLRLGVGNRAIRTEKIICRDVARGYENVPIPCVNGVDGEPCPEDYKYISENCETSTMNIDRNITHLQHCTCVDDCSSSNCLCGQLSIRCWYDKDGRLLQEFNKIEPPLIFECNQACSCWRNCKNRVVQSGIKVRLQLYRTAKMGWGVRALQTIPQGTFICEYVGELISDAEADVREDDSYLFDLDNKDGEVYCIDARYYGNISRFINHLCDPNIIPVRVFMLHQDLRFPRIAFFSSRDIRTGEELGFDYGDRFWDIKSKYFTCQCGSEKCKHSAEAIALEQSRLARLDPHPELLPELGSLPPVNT

| SMILES | Potency | activity, negative = inhibition |
| --- | --- | --- |
| CCC(NC(=O)Nc1ccc(O)cc1)(C(F)(F)F)C(F)(F)F | inconclusive: 79.4 µM [inhibitor, single point] |  |
| COc1ccc(NC(=S)Nc2cccnc2)c(OC)c1 | active: 50.1 µM |  |
| N#CC1=C(N)OC2=C(C(=O)CC(c3ccccc3)C2)C1c1cccnc1 (stereo not drawn) | inconclusive: 89.1 µM [inhibitor, single point] |  |
| O=C(NCCC1=CCCCC1)C1CCN(Cc2cnn(-c3ccccc3)c2-n2cccc2)CC1 | inconclusive: 56.2 µM [inhibitor, partial curve] |  |
| CCCOC(C(=O)OC1CCN(C)CC1)(c1ccccc1)c1ccccc1 | inconclusive: 0.891 µM [inhibitor, full curve, poor fit] |  |
| Nc1cc(=O)[nH]c(SCC(=O)N2CCC(Cc3ccccc3)CC2)n1 |  | inactive: 0.705% [at 2.33 µM] |
| COc1cccc2cc(C(C)=O)c(=O)oc12 |  | inactive: -1.43% [at 12.7 µM] |
| CCOC(=O)C1CCCN(C(=O)c2cc3cc(OC)c(OC)cc3[nH]2)C1 (stereo not drawn) |  | inactive: 10.6% [at 102 µM] |
| COc1ccc2[nH]c(O)c(N=O)c2c1 | inconclusive: 39.8 µM [inhibitor, single point] |  |
| CCC1=NN(C(=O)Cc2ccc([N+](=O)[O-])cc2)C(O)(c2ccc(Br)cc2)C1 (stereo not drawn) | inconclusive: 89.1 µM [inhibitor, single point] |  |
| CCn1c(SCC(=O)Nc2nc(C)cs2)nnc1C(NC(=O)c1ccccc1Cl)C(C)C (stereo not drawn) | inconclusive: 22.4 µM [inhibitor, single point] |  |
| CCC(Sc1nncn1C)C(=O)Nc1nnc(-c2ccccc2Cl)s1 (stereo not drawn) | inconclusive: 44.7 µM [inhibitor, partial curve] |  |
| C[N+](C)(C)CCOP(=O)(O)OP(=O)([O-])OC[C@H]1O[C@@H](n2ccc(N)nc2=O)[C@H](O)[C@@H]1O | inactive and active: 10 µM |  |
| Nn1c(SCC(=O)NC2CCCc3ccccc32)nnc1-c1ccc(Cl)cc1Cl (stereo not drawn) | inconclusive: 89.1 µM [inhibitor, single point] |  |
| C=CCOc1ccc(/C=N/NC(=O)C(=O)Nc2ccccn2)cc1OC | inconclusive: 14.1 µM [inhibitor, partial curve, poor fit] |  |
| Cc1cc(C)nc(SCC(=O)OCC(=O)Nc2nc3ccccc3s2)n1 | inconclusive: 100 µM [inhibitor, single point] |  |
| CC(C)C1Nc2c(C(=O)O)cccc2C(Nc2ccccc2C(=O)O)C1(C)C (stereo not drawn) | inconclusive: 44.7 µM [inhibitor, partial curve, poor fit] |  |
| COC(=O)c1nc(NC(=O)C(C)(C)C)n[nH]1 |  | inconclusive: -94.8% [inhibitor] |
